Results: the supplement of paper PMC9334596
Where “and” joins values, the source holds several entries; their conditions need not be identical. Identical values can stand only once. In all, about 5,300 compounds were measured (“PER2::LUC luminescence relative to vehicle control”: median about 0.96, highest 2% from about 1.3 on). The list shows a part of the results.

Tested on: mPer2Luc MEF
Experiment: PER2::LUC luminescence relative to vehicle control (fold of vehicle); higher = higher PER2::LUC reporter signal
Settings: 10 µM
Outline: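 The reported values are PER2::LUC luminescence as fold of vehicle control in mouse embryonic fibroblasts carrying the mPer2Luc reporter. Cells were seeded at ~3000 per well in 384-well plates in DMEM with 10% FBS at 37 °C and 5% CO2, and compounds were added at 10 μM 48 h later. ONE-Glo luminescence was read 24 h and 30 h after treatment.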

Structure (SMILES) | PER2::LUC luminescence (time after treatment 24 h) | PER2::LUC luminescence (time after treatment 30 h)
CCCCC(CC)COc1ccc(-c2nc(-c3ccc(OC)cc3)nc(-c3ccc(OCC(CC)CCCC)cc3O)n2)c(O)c1 (stereo not drawn) | 0.976 | 0.901
Cn1cc(-c2ccc3nnc(Sc4ccc5nn(C)cc5c4)n3n2)cn1 | 0.782 | 0.785
CO[C@H]1C[C@@H]2CC[C@@H](C)[C@@](O)(O2)C(=O)C(=O)N2CCCC[C@H]2C(=O)O[C@H]([C@H](C)C[C@@H]2CC[C@@H](OC(=O)C(C)(CO)CO)[C@H](OC)C2)CC(=O)[C@H](C)/C=C(\C)[C@@H](O)[C@@H](OC)C(=O)[C@H](C)C[C@H](C)/C=C/C=C/C=C/1C | 0.336 | 0.524
CN1CCCN=C1/C=C/c1cccs1 | 1.2 and 1.03 | 0.92 and 1.16
O=C1N=c2ccccc2=C1c1c(O)[nH]c2ccccc12 | 0.942 | 0.677
CCC[C@@H]1C[C@@H](C(=O)N[C@@H]([C@H]2O[C@H](SC)[C@H](O)[C@@H](O)[C@H]2O)[C@@H](C)O)N(C)C1 | 0.932 and 0.965 | 0.909 and 0.803
N#Cc1c(Oc2ccc(F)c(NC(=O)Cc3cccc(C(F)(F)F)c3)c2)ccc2nc(NC(=O)C3CC3)sc12 | 0.51 | 0.454
C=C1C(N)CC2CC1C2(C)C (stereo not drawn) | 0.931 | 0.893
O=c1cc[nH]c(=O)[nH]1 | 1.08 | 0.99
O=C(NCc1ccc(S(=O)(=O)c2cc(F)cc(F)c2)cc1)c1ccc2nccn2c1 | 0.94 | 0.696
COc1ccc(-c2cc(=O)c3c(OC)c(OC)c(OC)c(OC)c3o2)cc1OC | 0.626 | 0.784
NC(=O)C(c1ccccc1)(c1ccc(F)cc1)c1ccc(F)cc1 | 0.996 | 0.95
Cc1ccc(C(=O)Nc2cccc(C(F)(F)F)c2)cc1Nc1nc(-c2cccnc2)nc2c1cnn2C | 0.533 | 0.417
CCOC(=O)N1c2ccc(C(F)(F)F)cc2[C@@H](N(Cc2cc(C(F)(F)F)cc(C(F)(F)F)c2)C(=O)OC)C[C@H]1CC | 1.07 and 1.28 | 1.06 and 1.09
Cc1noc(-c2ccc(CSCCC(=O)O)cc2)c1NC(=O)OC(C)c1ccccc1Cl (stereo not drawn) | 0.665 | 0.728
Cc1cc2nc3c(=O)[nH]c(=O)nc-3n(C[C@H](O)[C@H](O)[C@H](O)COP(=O)(O)O)c2cc1C | 1.22 | 0.887
Cc1cc(Nc2ncnc3ccc(NC4=NC(C)(C)CO4)cc23)ccc1Oc1ccn2ncnc2c1 | 0.923 | 0.826
CCN(CC)CCNC(=O)c1cc(Br)c(N)cc1OC | 1.07 | 0.932
CCc1ccc(/C=C2/SC(=S)NC2=O)cc1 | 1.05 | 1.19
Cc1ccc(Nc2nccc(N(C)c3ccc4c(C)n(C)nc4c3)n2)cc1S(N)(=O)=O | 0.654 | 0.738
Cc1c(Cl)c(C)[n+]([O-])c(Cl)c1-c1noc(-c2cc(O)c(O)c([N+](=O)[O-])c2)n1 | 1 | 0.942
CC(=O)[C@H]1[C@H](C#N)C[C@H]2[C@@H]3CC=C4C[C@@H](O)CC[C@]4(C)[C@H]3CC[C@@]21C | 0.924 | 0.94
COc1cc(Nc2ncc3c(n2)-c2ccc(Cl)cc2C(c2c(F)cccc2OC)=NC3)ccc1C(=O)O | 0.902 and 0.778 | 0.925 and 0.814
OC(CCN1CCCCC1)(c1ccccc1)c1ccccc1 | 0.877 and 0.826 | 0.821 and 0.742
C[C@H]1C(=O)CC[C@@H]2[C@]1(C)CC[C@H]1[C@@]2(C)CC[C@@]2(C)[C@@H]3CC(C)(C)CC[C@]3(C)CC[C@]12C | 0.971 | 0.998
CCCCC(=O)N(Cc1ccc(-c2ccccc2-c2nnn[nH]2)cc1)[C@H](C(=O)O)C(C)C | 0.77 | 0.941
O=C1c2cccc(O)c2C(=O)c2c(O)cccc21 | 0.742 and 0.482 | 1.16 and 1.05

Structure (SMILES) | PER2::LUC luminescence (time after treatment 24 h) | PER2::LUC luminescence (time after treatment 30 h)
O=C1C[C@@H](c2ccc(O)c(O)c2)Oc2c1ccc(O[C@@H]1O[C@H](CO)[C@@H](O)[C@H](O)[C@H]1O)c2O | 0.937 | 0.969
CN1c2ccccc2C(=O)N2CCc3c([nH]c4ccccc34)C21 (stereo in doubt) | 0.589 | 0.628
CCOC(N)=O | 0.792 | 0.963
O=c1cc(N2CCOCC2)oc2c(-c3ccccc3)cccc12 | 0.513 | 0.532
N[C@H](C(=O)O)c1ccc(C(=O)O)c(O)c1 | 1.02 | 0.946
O=C(O)c1cc(=O)c2ccccc2[nH]1 | 1.08 | 0.931
Cc1cnc(NC(=O)Nc2cc(Br)c(C)cc2OC[C@@H]2CNCCO2)cn1 | 0.814 | 0.739
CCCCCCCCCCCC[C@@H](C(=O)O)[C@H](C)C(=O)O | 1.06 | 1.05
CCNC(=O)Nc1ccc(-c2nc3c(c(N4CCOC[C@@H]4C)n2)CCN(c2ncccn2)C3)cc1 | 0.196 | 0.242
CSCC[C@H](NC(=O)[C@H](Cc1c[nH]c2ccccc12)NC(=O)CCNC(=O)OC(C)(C)C)C(=O)N[C@@H](CC(=O)O)C(=O)N[C@@H](Cc1ccccc1)C(N)=O | 0.98 | 0.915
Cc1ccc(Sc2cncc3sc(C(N)=O)cc23)cc1 | 1.08 | 1.19
CC(C)NNC(=O)c1ccncc1 | 0.629 and 0.387 | 0.999 and 0.656
Cc1c(C(=O)Nc2ccc(N3C[C@@H](C)O[C@@H](C)C3)nc2)cccc1-c1ccc(OC(F)(F)F)cc1 | 0.915 and 0.802 and 0.772 | 0.898 and 0.872 and 0.857
CN(c1ncccc1CNc1nc(Nc2ccc3c(c2)CC(=O)N3)ncc1C(F)(F)F)S(C)(=O)=O | 0.707 and 0.553 | 0.53 and 0.531
CC1(COc2ccc(CC3SC(=O)NC3=O)cc2)CCCCC1 (stereo not drawn) | 1.26 | 1.31
CN(C)CCc1c[nH]c2ccc(CS(=O)(=O)N3CCCC3)cc12 | 0.796 and 1.17 | 0.899 and 1.08
Cn1nc(C(C)(C)C)cc1C(=O)N[C@@H](Cc1cccc(Cl)c1)C(=O)NCC#N | 1.12 | 1.09
O=C(Nc1ccccc1)N1CCN(c2nc(-c3ccccc3)ns2)CC1 | 0.965 | 1.15
Clc1cccc(CN=C2Nc3ccccc3NC23CCNCC3)c1 | 0.739 | 0.742
FC(F)(F)COB(OCC(F)(F)F)OCC(F)(F)F | 0.958 | 1
CCN1CCCC1CNC(=O)c1cc(S(N)(=O)=O)ccc1OC (single isomer, unassigned; (-)) | 0.865 | 0.962
O=C(O)CCC(=O)c1ccc(-c2ccccc2)cc1 | 0.819 | 1.19
C[C@H]1[C@H](C)CC[C@]2(C(=O)O)CC[C@]3(C)C(=CC[C@@H]4[C@@]5(C)C[C@@H](O)[C@H](O)[C@@](C)(CO)[C@@H]5[C@H](O)C[C@]43C)[C@H]12 | 0.951 | 1.02
COc1ccc(-c2coc3cc(O)ccc3c2=O)c(OC)c1 | 1.02 | 1.05
CC(=O)N(C/C=C(\C)CCC=C(C)C)[C@@H](CS)C(=O)O | 1.05 | 1.03
N[C@@H](Cc1ccc(O)c(O)c1)C(=O)O | 0.929 and 0.725 | 0.802 and 0.885
CCCCc1ncc(/C=C(\Cc2cccs2)C(=O)O)n1Cc1ccc(C(=O)O)cc1 | 0.981 | 1.08

Structure (SMILES) | PER2::LUC luminescence (time after treatment 24 h) | PER2::LUC luminescence (time after treatment 30 h)
CCC(C)C(NC)C(=O)O (stereo not drawn) | 0.911 | 1.2
CN1CCCN(C(=O)c2cccc(-c3ccc(/C=C4/C(=O)Nc5ccc(Cl)cc54)o3)c2)CC1 | 0.948 | 0.707
CCCCCCCCOc1ccccc1C(=O)Nc1ccc(C(=O)OCC[N+](C)(CC)CC)cc1 | 1.11 | 1
CN1CCN2c3ccccc3Cc3ccccc3C2C1 (stereo not drawn) | 0.699 | 0.809
Cc1nc2sccn2c(=O)c1CCN1CCC(=C(c2ccc(F)cc2)c2ccc(F)cc2)CC1 | 0.909 | 0.823
CO[C@H]1C[C@H](O[C@@H]2/C(C)=C/C[C@@H]3C[C@@H](C[C@]4(CC[C@H](C)[C@@H](C5CCCCC5)O4)O3)OC(=O)[C@@H]3C=C(C)/C(=N/O)[C@H]4OC/C(=C\C=C\[C@@H]2C)[C@]43O)O[C@@H](C)[C@@H]1O | 0.454 | 0.892
C[C@H](CCC(=O)O)[C@H]1CC[C@H]2[C@@H]3C(=O)C[C@@H]4CC(=O)CC[C@]4(C)[C@H]3CC(=O)[C@]12C | 0.953 and 0.695 and 0.912 | 1.04 and 1.09 and 0.869
CCOC(=O)C1=C(C)NC(C)=C(C(=O)OC)C1c1cccc(Cl)c1Cl (stereo not drawn) | 0.973 | 0.833
CCCCOC(=O)OCCCC | 1 | 1.02
Cc1cc(C)c(/C=C2\C(=O)Nc3ccc(Cl)cc32)[nH]1 | 1.06 | 1.02
O=C1c2c(O)ccc(O)c2C(=O)c2c(NCCNCCO)ccc(NCCNCCO)c21 | 0.575 | 0.427
CCN1C(=O)C=CC1=O | 1.22 | 1.02
O=C(NC(Cc1cc(=O)[nH]c2ccccc12)C(=O)O)c1ccc(Cl)cc1 (stereo not drawn) | 0.677 | 0.798
COc1cc(O)cc(OC)c1OC | 0.93 | 0.903
COC(=O)/C=C/C(=O)OC | 1.13 | 0.827
COC(=O)[C@H]1[C@H]2C[C@H]3c4[nH]c5cc(OC)ccc5c4CCN3C[C@H]2C[C@@H](OC(=O)c2cc(OC)c(OC)c(OC)c2)[C@@H]1OC | 0.926 | 0.999
CNc1nc(Nc2ccc(C(=O)N3CCOCC3)cc2OC)ncc1Cl | 0.829 | 0.92
OC[C@H]1O[C@@H](O[C@H]2[C@H](O)[C@@H](O)C(O)O[C@@H]2CO)[C@H](O)[C@@H](O)[C@H]1O (stereo partly drawn) | 1.03 | 1.06
COC(=O)C[C@H]1C2(C)CC34OC5(C)O[C@@]6([C@H](OC)C(OC(=O)C(C)C)[C@]7(C)C(/C(=C(/OC)C(C)C)C(=O)O[C@H]7c7ccoc7)[C@@]6(O5)[C@H](OC)[C@@]3(OC)C2OC(C)=O)[C@]14C (stereo partly drawn) | 0.954 | 0.978
C[N+](C)(C)CCOC(N)=O | 0.681 | 1.23
CC(C)c1cc(C(C)C)c(CC(=O)NS(=O)(=O)Oc2c(C(C)C)cccc2C(C)C)c(C(C)C)c1 | 1.05 | 0.874
CC(C)(C)NC[C@H](O)COc1cccc2c1CCCC2=O | 0.93 | 0.875
OC[C@H]1NC[C@@H](O)[C@@H]1O | 1.04 | 0.79
CC(C)[C@H](NC(=O)OCc1ccccc1)C(=O)N[C@H](C=O)Cc1ccccc1 | 0.941 | 0.887
CCCNC(C)(C)COC(=O)c1ccccc1 | 0.894 | 0.968
